Some of the results follow.
Legend:
Experiment in all cases: glycan array binding signal (z-score within array); higher = stronger binding
Details in all cases: glycan notation: IUPAC condensed, linker removed
Gal(a1-3)Gal(b1-4)GlcNAc = target: Gal(a1-3)Gal(b1-4)GlcNAc
Summary of the method: (§1)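 From the Consortium for Functional Glycomics database, 3228 arrays were curated, keeping only those whose protein sequence was available. Binding is given as a within-array Z-score averaged across arrays sharing a protein sequence and across linkers. Negative Z-scores can be read as non-binding.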

[1] = target: Gal(a1-3)Gal(b1-4)GlcNAc(b1-2)Man
Summary of the method: as §1

[2] = target: Gal(a1-3)Gal(b1-4)GlcNAc(b1-2)Man(a1-3)[Gal(a1-3)Gal(b1-4)GlcNAc(b1-2)Man(a1-6)]Man(b1-4)GlcNAc(b1-4)GlcNAc
Summary of the method: as §1

[3] = target: Gal(a1-3)Gal(b1-4)GlcNAc(b1-3)GalNAc
Summary of the method: as §1

[4] = target: Gal(a1-3)Gal(b1-4)GlcNAc(b1-6)GalNAc
Summary of the method: as §1

[5] = target: Gal(a1-3)Gal(b1-4)[Fuc(a1-3)]GlcNAc
Summary of the method: as §1

[6] = target: Gal(a1-3)Gal(b1-4)[Fuc(a1-3)]GlcNAc(b1-2)Man(a1-3)[Gal(a1-3)Gal(b1-4)[Fuc(a1-3)]GlcNAc(b1-2)Man(a1-6)]Man(b1-4)GlcNAc(b1-4)GlcNAc
Summary of the method: as §1

Gal(a1-3)GalNAc = target: Gal(a1-3)GalNAc
Summary of the method: as §1

[7] = target: Gal(a1-3)[Gal(a1-4)]Gal(b1-4)GlcNAc
Summary of the method: as §1

[8] = target: Gal(a1-4)Gal(b1-3)GlcNAc(b1-2)Man(a1-3)[Gal(a1-4)Gal(b1-3)GlcNAc(b1-2)Man(a1-6)]Man(b1-4)GlcNAc(b1-4)GlcNAc
Summary of the method: as §1

Gal(a1-4)Gal(b1-4)Glc = target: Gal(a1-4)Gal(b1-4)Glc
Summary of the method: as §1

Gal(a1-4)Gal(b1-4)GlcNAc = target: Gal(a1-4)Gal(b1-4)GlcNAc
Summary of the method: as §1

[9] = target: Gal(a1-4)Gal(b1-4)GlcNAc(b1-2)Man(a1-3)[Gal(a1-4)Gal(b1-4)GlcNAc(b1-2)Man(a1-6)]Man(b1-4)GlcNAc(b1-4)GlcNAc
Summary of the method: as §1

[10] = target: Gal(a1-4)Gal(b1-4)GlcNAc(b1-3)Gal(b1-4)Glc
Summary of the method: as §1

Gal(a1-4)GlcNAc = target: Gal(a1-4)GlcNAc
Summary of the method: as §1

Gal(a1-6)Glc = target: Gal(a1-6)Glc
Summary of the method: as §1

Gal(b1-2)Gal = target: Gal(b1-2)Gal
Summary of the method: as §1

Gal(b1-3)Gal = target: Gal(b1-3)Gal
Summary of the method: as §1

Gal(b1-3)Gal(b1-4)GlcNAc = target: Gal(b1-3)Gal(b1-4)GlcNAc
Summary of the method: as §1

Gal(b1-3)GalNAc = target: Gal(b1-3)GalNAc
Summary of the method: as §1

[11] = target: Gal(b1-3)GalNAc(a1-3)[Fuc(a1-2)]Gal(b1-4)Glc
Summary of the method: as §1

[12] = target: Gal(b1-3)GalNAc(a1-3)[Fuc(a1-2)]Gal(b1-4)GlcNAc
Summary of the method: as §1

Gal(b1-3)GalNAc(b1-3)Gal = target: Gal(b1-3)GalNAc(b1-3)Gal
Summary of the method: as §1

[13] = target: Gal(b1-3)GalNAc(b1-3)Gal(a1-4)Gal(b1-4)Glc
Summary of the method: as §1

[14] = target: Gal(b1-3)GalNAc(b1-4)Gal(b1-4)Glc
Summary of the method: as §1

[15] = target: Gal(b1-3)GalNAc(b1-4)[Neu5Ac(a2-3)]Gal(b1-4)Glc
Summary of the method: as §1

Gal(b1-3)GlcNAc = target: Gal(b1-3)GlcNAc
Summary of the method: as §1

[16] = target: Gal(b1-3)GlcNAc(a1-3)Gal(b1-4)GlcNAc
Summary of the method: as §1

[17] = target: Gal(b1-3)GlcNAc(a1-6)Gal(b1-4)GlcNAc
Summary of the method: as §1

Gal(b1-3)GlcNAc(b1-2)Man = target: Gal(b1-3)GlcNAc(b1-2)Man
Summary of the method: as §1

[18] = target: Gal(b1-3)GlcNAc(b1-2)Man(a1-3)[Gal(b1-3)GlcNAc(b1-2)Man(a1-6)]Man(b1-4)GlcNAc(b1-4)GlcNAc
Summary of the method: as §1

[19] = target: Gal(b1-3)GlcNAc(b1-2)Man(a1-3)[Gal(b1-3)GlcNAc(b1-2)Man(a1-6)]Man(b1-4)GlcNAc(b1-4)[Fuc(a1-6)]GlcNAc
Summary of the method: as §1

[20] = target: Gal(b1-3)GlcNAc(b1-2)Man(a1-3)[GlcNAc(b1-4)][Gal(b1-3)GlcNAc(b1-2)Man(a1-6)]Man(b1-4)GlcNAc(b1-4)GlcNAc
Summary of the method: as §1

[21] = target: Gal(b1-3)GlcNAc(b1-2)[Gal(b1-3)GlcNAc(b1-6)]Man(a1-6)[Gal(b1-3)GlcNAc(b1-2)Man(a1-3)]Man(b1-4)GlcNAc(b1-4)GlcNAc
Summary of the method: as §1

[22] = target: Gal(b1-3)GlcNAc(b1-3)Gal(b1-3)GlcNAc
Summary of the method: as §1

[23] = target: Gal(b1-3)GlcNAc(b1-3)Gal(b1-4)Glc
Summary of the method: as §1

[24] = target: Gal(b1-3)GlcNAc(b1-3)Gal(b1-4)GlcNAc
Summary of the method: as §1

[25] = target: Gal(b1-3)GlcNAc(b1-3)Gal(b1-4)GlcNAc(b1-2)Man(a1-3)[Gal(b1-3)GlcNAc(b1-3)Gal(b1-4)GlcNAc(b1-2)Man(a1-6)]Man(b1-4)GlcNAc(b1-4)GlcNAc
Summary of the method: as §1

[26] = target: Gal(b1-3)GlcNAc(b1-3)Gal(b1-4)GlcNAc(b1-2)[Gal(b1-3)GlcNAc(b1-3)Gal(b1-4)GlcNAc(b1-6)]Man(a1-6)[Gal(b1-3)GlcNAc(b1-3)Gal(b1-4)GlcNAc(b1-2)Man(a1-3)]Man(b1-4)GlcNAc(b1-4)[Fuc(a1-6)]GlcNAc
Summary of the method: as §1

[27] = target: Gal(b1-3)GlcNAc(b1-3)Gal(b1-4)GlcNAc(b1-3)Gal(b1-4)GlcNAc(b1-2)[Gal(b1-3)GlcNAc(b1-3)Gal(b1-4)GlcNAc(b1-3)Gal(b1-4)GlcNAc(b1-6)]Man(a1-6)[Gal(b1-3)GlcNAc(b1-3)Gal(b1-4)GlcNAc(b1-3)Gal(b1-4)GlcNAc(b1-2)Man(a1-3)]Man(b1-4)GlcNAc(b1-4)[Fuc(a1-6)]GlcNAc
Summary of the method: as §1

[28] = target: Gal(b1-3)GlcNAc(b1-3)Gal(b1-4)GlcNAc(b1-6)[Gal(b1-3)GlcNAc(b1-3)]Gal(b1-4)Glc
Summary of the method: as §1

[29] = target: Gal(b1-3)GlcNAc(b1-3)Gal(b1-4)[Fuc(a1-3)]GlcNAc
Summary of the method: as §1

[30] = target: Gal(b1-3)GlcNAc(b1-3)Gal(b1-4)[Fuc(a1-3)]GlcNAc(b1-6)[Gal(b1-3)GlcNAc(b1-3)]Gal(b1-4)Glc
Summary of the method: as §1

[31] = target: Gal(b1-3)GlcNAc(b1-3)GalNAc
Summary of the method: as §1

[32] = target: Gal(b1-3)GlcNAc(b1-6)Gal(b1-4)GlcNAc
Summary of the method: as §1

B1: MSMEG3662-2a (Mycobacterium smegmatis), A0QYH7_MYCS2 (protein)
chain: MGDTLTAGQKLERGGSLQSGNGAYTLTLQDDGNLVLYARDKAVWSTGTNGQDVVRAEVQTDGNFVLYTAEKPVWHTDTKGKKEVKLVLQDDRNLVLYAKDGPAWSSKTDTTEPPPPAPEPEKEAEVAPAAAEEAAPAPVAEPAPAEPAPAAPPPAPPAPRTYTVVSGDTLWAIAERFYGDGSKYQQIADASGIANPDLIHPGQVLTIP
glycan array binding signal (z-score) (Gal(a1-3)Gal(b1-4)GlcNAc): -0.174
glycan array binding signal (z-score) [1]: -0.203
glycan array binding signal (z-score) [2]: -0.142
glycan array binding signal (z-score) [3]: -0.096
glycan array binding signal (z-score) [4]: -0.123
glycan array binding signal (z-score) [5]: -0.102
glycan array binding signal (z-score) [6]: 0.053
glycan array binding signal (z-score) (Gal(a1-3)GalNAc): -0.104
glycan array binding signal (z-score) [7]: -0.039
glycan array binding signal (z-score) [8]: 0.005
glycan array binding signal (z-score) (Gal(a1-4)Gal(b1-4)Glc): 0.031
glycan array binding signal (z-score) (Gal(a1-4)Gal(b1-4)GlcNAc): 0.028
glycan array binding signal (z-score) [9]: 0.003
glycan array binding signal (z-score) [10]: 0.136
glycan array binding signal (z-score) (Gal(a1-4)GlcNAc): -0.172
glycan array binding signal (z-score) (Gal(a1-6)Glc): -0.196
glycan array binding signal (z-score) (Gal(b1-2)Gal): -0.154
glycan array binding signal (z-score) (Gal(b1-3)Gal): -0.099
glycan array binding signal (z-score) (Gal(b1-3)Gal(b1-4)GlcNAc): -0.091
glycan array binding signal (z-score) (Gal(b1-3)GalNAc): -0.058
glycan array binding signal (z-score) [11]: -0.196
glycan array binding signal (z-score) [12]: -0.15
glycan array binding signal (z-score) (Gal(b1-3)GalNAc(b1-3)Gal): -0.147
glycan array binding signal (z-score) [13]: -0.084
glycan array binding signal (z-score) [14]: -0.005
glycan array binding signal (z-score) [15]: -0.049
glycan array binding signal (z-score) (Gal(b1-3)GlcNAc): -0.053
glycan array binding signal (z-score) [16]: 0.018
glycan array binding signal (z-score) [17]: -0.107
glycan array binding signal (z-score) (Gal(b1-3)GlcNAc(b1-2)Man): -0.112
glycan array binding signal (z-score) [18]: -0.013
glycan array binding signal (z-score) [19]: -0.162
glycan array binding signal (z-score) [20]: -0.022
glycan array binding signal (z-score) [21]: 0.06
glycan array binding signal (z-score) [22]: -0.094
glycan array binding signal (z-score) [23]: -0.073
glycan array binding signal (z-score) [24]: -0.228
glycan array binding signal (z-score) [25]: -0.05
glycan array binding signal (z-score) [26]: 0.25
glycan array binding signal (z-score) [27]: 0.092
glycan array binding signal (z-score) [28]: -0.082
glycan array binding signal (z-score) [29]: -0.048
glycan array binding signal (z-score) [30]: -0.062
glycan array binding signal (z-score) [31]: -0.02
glycan array binding signal (z-score) [32]: -0.238

From the supplement of paper PMC8728848
